These are yes or no findings as the source states them, for the method shown. In cells and extracts the contact can be indirect. Some entries that bind do so weakly or less than the wild type. For some of these results: Where a sequence is shown, tags or fusion partners need not be part of it.
T1: Flag-tagged ZNRF1 (zinc and ring finger 1), full length (mouse) (UniProt Q91V17)
T1 sequence: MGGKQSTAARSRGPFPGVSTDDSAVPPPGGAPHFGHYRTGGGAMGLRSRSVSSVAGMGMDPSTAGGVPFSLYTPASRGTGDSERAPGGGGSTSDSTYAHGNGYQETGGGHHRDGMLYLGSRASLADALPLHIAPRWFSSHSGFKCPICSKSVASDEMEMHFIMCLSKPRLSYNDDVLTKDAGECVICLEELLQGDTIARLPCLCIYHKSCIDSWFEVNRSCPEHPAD

T2: ZNRF1(ΔN142), Flag-tagged (mouse) (UniProt Q91V17)
T2 sequence: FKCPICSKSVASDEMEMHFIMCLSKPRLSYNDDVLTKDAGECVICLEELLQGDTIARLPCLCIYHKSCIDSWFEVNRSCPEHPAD

T3: endogenous ZNRF1 of RAW264.7 macrophages (mouse (endogenous in RAW264.7)) (UniProt Q91V17)
T3 sequence: T1 sequence

T4: V5-tagged CAV1 (caveolin-1), full length (mouse) (UniProt P49817)
T4 sequence: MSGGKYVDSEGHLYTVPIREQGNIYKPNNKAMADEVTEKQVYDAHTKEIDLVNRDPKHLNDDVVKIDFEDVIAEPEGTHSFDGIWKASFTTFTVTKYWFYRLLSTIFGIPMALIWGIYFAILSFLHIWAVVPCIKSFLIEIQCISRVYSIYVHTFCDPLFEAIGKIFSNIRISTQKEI

B1: V5-tagged CAV1 (caveolin-1), full length (protein, UniProt P49817 1-178)
chain: T4 sequence
B2: endogenous CAV1 of RAW264.7 macrophages (protein, UniProt P49817 1-178)
chain: T4 sequence
B3: CAV1(Δ136–178), V5-tagged (domain or fragment, UniProt P49817 1-135)
chain: MSGGKYVDSEGHLYTVPIREQGNIYKPNNKAMADEVTEKQVYDAHTKEIDLVNRDPKHLNDDVVKIDFEDVIAEPEGTHSFDGIWKASFTTFTVTKYWFYRLLSTIFGIPMALIWGIYFAILSFLHIWAVVPCIK
B4: Flag-tagged ZNRF1 (zinc and ring finger 1), full length (enzyme, UniProt Q91V17 1-227)
chain: T1 sequence
B5: CAV1(Δ136–151), V5-tagged (protein, UniProt P49817)
chain: MSGGKYVDSEGHLYTVPIREQGNIYKPNNKAMADEVTEKQVYDAHTKEIDLVNRDPKHLNDDVVKIDFEDVIAEPEGTHSFDGIWKASFTTFTVTKYWFYRLLSTIFGIPMALIWGIYFAILSFLHIWAVVPCIKVHTFCDPLFEAIGKIFSNIRISTQKEI
B6: CAV1(Δ151), V5-tagged (domain or fragment, UniProt P49817 1-150)
chain: MSGGKYVDSEGHLYTVPIREQGNIYKPNNKAMADEVTEKQVYDAHTKEIDLVNRDPKHLNDDVVKIDFEDVIAEPEGTHSFDGIWKASFTTFTVTKYWFYRLLSTIFGIPMALIWGIYFAILSFLHIWAVVPCIKSFLIEIQCISRVYSI

What was measured:
[1] = target: T1, Flag-tagged ZNRF1 (zinc and ring finger 1), full length (mouse); assay: co-IP; HEK293T cells co-transfected with V5-tagged CAV1 and Flag-tagged ZNRF1 (full length or truncated); lysis in 150 mM NaCl, 20 mM Tris-HCl pH 7.4, 0.5% Triton X-100; immunoprecipitation at 4 °C and immunoblotting
[2] = target: T2, ZNRF1(ΔN142), Flag-tagged (mouse); assay: as above
[3] = target: T3, endogenous ZNRF1 of RAW264.7 macrophages (mouse (endogenous in RAW264.7)); assay: co-IP; endogenous proteins; ZNRF1 immunoprecipitated from lysates of RAW264.7 cells treated with LPS (100 ng/ml) for the indicated times, immunoblot for CAV1
[4] = target: T4, V5-tagged CAV1 (caveolin-1), full length (mouse); assay: co-IP; HEK293T cells co-transfected with V5-tagged CAV1 and Flag-tagged ZNRF1 (full length or truncated); lysis in 150 mM NaCl, 20 mM Tris-HCl pH 7.4, 0.5% Triton X-100; immunoprecipitation at 4 °C and immunoblotting

Row | Binder | binding [1] | also measured
1 | B1 | binds | binding [2]: no binding
2 | B2 |  | binding [3]: binds
3 | B3 | no binding | 
4 | B4 |  | binding [4]: binds
5 | B5 | no binding | 
6 | B6 | binds | 
